In the antibiotic and cytotoxicity screens of Wong et al. (2023) one finds cytotoxicity call and growth inhibition call data, which are given here for 27 compounds.

The list shows a part of the results.

One experiment deals with HSkMC. As to the kind of experiment: cytotoxicity call (relative viability < 0.9). As to conditions: 10 µM.
The next experiment concerns HepG2. The experiment in a line: cytotoxicity call (relative viability < 0.9). The settings on record: 10 µM.
A further experiment relates to S. aureus RN4220. The experiment in a line: growth inhibition call (relative growth <= 0.2). The settings on record: 50 µM.

Regarding `CC(C)NC(=O)N(C)C[C@@H]1OCCCC[C@H](C)Oc2ccc(NC(=O)Nc3ccc(F)cc3)cc2C(=O)N([C@@H](C)CO)C[C@@H]1C`, the cytotoxicity call in the experiment with HSkMC and in the experiment on HepG2 was “inactive” throughout. Moreover, in the experiment on S. aureus RN4220, the growth inhibition call was “inactive”.
Turning to `C[C@@H]1CN(CCO)C(=O)c2cc(NC(=O)Nc3ccccc3)ccc2O[C@@H](C)CCCCO[C@H]1CN(C)S(=O)(=O)c1ccc(F)cc1`, the cytotoxicity call in the experiment on HSkMC and with HepG2 was “inactive” in each case. Further, in the experiment with S. aureus RN4220, the growth inhibition call was “inactive”.
For the compound `CN(N=O)C(=O)NC1C(O)OC(CO)C(O)C1O` (stereo unspecified), the cytotoxicity call with HSkMC and in the experiment on HepG2 was “inactive” in each case. For the same compound, in the experiment on S. aureus RN4220, the growth inhibition call is “inactive”.
Turning to `CN(C)C(=O)N1CCC2(CC1)CC1(CCN(S(=O)(=O)C3CC3)CC1)N(C)C2=O`, the cytotoxicity call in the experiment on HSkMC and in the experiment with HepG2 was “inactive” in each case. In addition, the growth inhibition call in the experiment on S. aureus RN4220 is “inactive”.
As for `OCCc1ccc(O)c(O[C@H]2O[C@@H](CO)[C@@H](O)[C@@H](O)[C@@H]2O)c1`, the cytotoxicity call in the experiment on HSkMC and with HepG2 was “inactive” each time. Also, the growth inhibition call in the experiment with S. aureus RN4220 is “inactive”.
For `C[C@H]1CN([C@@H](C)CO)C(=O)c2cc(C#CCc3ccccc3)cnc2O[C@H]1CN(C)C(=O)Cc1cccnc1`, the cytotoxicity call in the experiment with HSkMC and with HepG2 was “inactive” in each case. Also, in the experiment with S. aureus RN4220, the growth inhibition call is “inactive”.
For the compound `CN1C(C)(C)CCCC1(C)C`, the cytotoxicity call in the experiment on HSkMC and with HepG2 was “inactive” in each case. Further, the growth inhibition call in the experiment with S. aureus RN4220 was “inactive”.
With `Cc1ccc(S(=O)(=O)N(C)C[C@H]2OCCCC[C@@H](C)Oc3ccc(NC(=O)CCC(F)(F)F)cc3C(=O)N([C@H](C)CO)C[C@@H]2C)cc1`, the cytotoxicity call in the experiment with HSkMC and in the experiment on HepG2 was “inactive” in each case. For the same compound, the growth inhibition call in the experiment on S. aureus RN4220 was “inactive”.
For `COc1ccc(S(=O)(=O)N2C[C@H](O)COC[C@H]3O[C@@H](CC(=O)NCCCN4CCOCC4)CC[C@@H]32)cc1`, the cytotoxicity call in the experiment on HSkMC and in the experiment with HepG2 was “inactive” in each case. In addition, in the experiment with S. aureus RN4220, the growth inhibition call is “inactive”.
Regarding `COc1ccc(S(=O)(=O)Nc2ccc3c(c2)C(=O)N([C@H](C)CO)C[C@H](C)[C@H](CN(C)CC2CCCCC2)OCCCC[C@@H](C)O3)cc1`, the cytotoxicity call in the experiment on HSkMC and in the experiment with HepG2 was “inactive” throughout. In addition, the growth inhibition call with S. aureus RN4220 was “inactive”.
Take `COc1ccc(C[C@H](N)C(=O)N[C@H]2[C@@H](O)[C@@H](n3cnc4c(N(C)C)ncnc43)O[C@@H]2CO)cc1`: the cytotoxicity call with HSkMC and with HepG2 was “active” in each case. Besides, the growth inhibition call with S. aureus RN4220 is “active”.
As for `C[C@@H]1CN([C@H](C)CO)C(=O)c2c(c3ccccc3n2C)-c2ccccc2CO[C@H]1CN(C)Cc1ccc(-c2ccccc2)cc1`, the cytotoxicity call in the experiment on HSkMC and in the experiment on HepG2 was “inactive” each time. Moreover, the growth inhibition call with S. aureus RN4220 is “inactive”.
`C[C@H]1CN([C@@H](C)CO)C(=O)c2cccc(NC(=O)c3ccc(-c4nccs4)cc3)c2O[C@@H]1CN(C)S(=O)(=O)c1cn(C)cn1`: the cytotoxicity call with HSkMC and with HepG2 was “inactive” each time. Besides, the growth inhibition call in the experiment with S. aureus RN4220 is “inactive”.
Turning to `C[C@@H]1CN([C@@H](C)CO)C(=O)Cc2cc(NS(=O)(=O)c3cn(C)cn3)ccc2O[C@H]1CN(C)Cc1ccncc1`, the cytotoxicity call with HSkMC and in the experiment with HepG2 was “inactive” throughout. Further, the growth inhibition call with S. aureus RN4220 was “inactive”.
On to `CN1CCN(C(=O)C[C@H]2CC[C@@H]3[C@H](COC[C@H](O)CN3CC3CCCC3)O2)CC1`, for which the cytotoxicity call in the experiment with HSkMC and in the experiment with HepG2 was “inactive” in each case. For the same compound, the growth inhibition call in the experiment with S. aureus RN4220 is “inactive”.
On to `Cc1noc(C)c1NC(=O)Nc1cccc2c1O[C@@H](CN(C)C(=O)Nc1cccc3ccccc13)[C@@H](C)CN([C@H](C)CO)C2=O`, for which the cytotoxicity call in the experiment with HSkMC and in the experiment on HepG2 was “inactive” each time. Further, in the experiment on S. aureus RN4220, the growth inhibition call was “inactive”.
As to `C[C@H](CO)N1C[C@H](C)[C@H](CN(C)C(=O)Nc2cccc3ccccc23)OCCCC[C@H](C)Oc2ccc(NC(=O)Cc3ccccc3)cc2C1=O`, the cytotoxicity call in the experiment on HSkMC and in the experiment with HepG2 was “inactive” in each case. For the same compound, the growth inhibition call with S. aureus RN4220 was “inactive”.
For the compound `COc1ccc(NC(=O)N(C)C[C@@H]2OCCCC[C@H](C)Oc3ccc(NS(=O)(=O)c4ccc(OC)cc4)cc3C(=O)N([C@H](C)CO)C[C@H]2C)cc1`, the cytotoxicity call in the experiment with HSkMC and with HepG2 was “inactive” each time. Besides, in the experiment with S. aureus RN4220, the growth inhibition call was “inactive”.
Take `COCCNC(=O)C[C@H]1CC[C@@H]2[C@H](COc3ccc(NS(=O)(=O)c4ccc(Cl)cc4)cc3C(=O)N2C)O1`: the cytotoxicity call in the experiment with HSkMC and in the experiment on HepG2 was “inactive” each time. Moreover, the growth inhibition call in the experiment on S. aureus RN4220 was “inactive”.
As to `CN1CCN(C(=O)C[C@H]2CC[C@@H](NC(=O)c3ccc4c(c3)OCO4)[C@H](CO)O2)CC1`, the cytotoxicity call in the experiment with HSkMC and in the experiment with HepG2 was “inactive” throughout. Besides, the growth inhibition call in the experiment on S. aureus RN4220 was “inactive”.
For the compound `Cc1ccc(OC(=O)N(C)C[C@H]2OCc3ccccc3-c3ccccc3C(=O)N([C@@H](C)CO)C[C@H]2C)cc1`, the cytotoxicity call in the experiment on HSkMC and with HepG2 was “inactive” each time. Besides, the growth inhibition call with S. aureus RN4220 is “inactive”.
Turning to `COc1ccc(NC(=O)N(C)C[C@@H]2Oc3ccc(NC(=O)Nc4cccc5ccccc45)cc3CC(=O)N([C@H](C)CO)C[C@H]2C)cc1`, the cytotoxicity call in the experiment with HSkMC and in the experiment on HepG2 was “inactive” throughout. Moreover, the growth inhibition call in the experiment with S. aureus RN4220 was “inactive”.
As for `COc1ccc(S(=O)(=O)N(C)C[C@H]2OCCCC[C@H](C)Oc3ccc(NC(=O)Nc4ccc(F)cc4)cc3C(=O)N([C@H](C)CO)C[C@H]2C)cc1`, the cytotoxicity call in the experiment on HSkMC and in the experiment on HepG2 was “inactive” in each case. Besides, the growth inhibition call with S. aureus RN4220 is “inactive”.
On to `COc1ccc(NC(=O)Nc2ccc3c(c2)C(=O)N([C@@H](C)CO)C[C@@H](C)[C@@H](CN(C)C(=O)Nc2ccc(F)cc2)OCCCC[C@@H](C)O3)cc1`, for which the cytotoxicity call in the experiment on HSkMC and in the experiment on HepG2 was “inactive” each time. The growth inhibition call in the experiment on S. aureus RN4220 is “inactive”.
`C[C@@H]1CCCCO[C@@H](CN(C)Cc2ccc(C(F)(F)F)cc2)[C@@H](C)CN([C@@H](C)CO)C(=O)c2cc(NC(=O)c3ccncc3)ccc2O1`: the cytotoxicity call with HSkMC and with HepG2 was “inactive” in each case. Further, the growth inhibition call in the experiment with S. aureus RN4220 is “inactive”.
Regarding `CCCNC(=O)N1C[C@H](O)COC[C@H]2O[C@@H](CC(=O)NCc3ccncn3)CC[C@@H]21`, the cytotoxicity call in the experiment with HSkMC and with HepG2 was “inactive” throughout. Further, in the experiment with S. aureus RN4220, the growth inhibition call was “inactive”.
Turning to `C[C@H]1CN([C@@H](C)CO)C(=O)c2cccc(NS(=O)(=O)c3ccccc3)c2O[C@@H]1CN(C)Cc1ccc(Oc2ccccc2)cc1`, the cytotoxicity call in the experiment on HSkMC (human skeletal muscle cells) and in the experiment with HepG2 was “inactive” in each case. In the experiment on S. aureus RN4220, the growth inhibition call is “inactive”.
